Source: PubChem BioAssay AID488969 (Vanderbilt High Throughput Screening Facility, 2010)
In all, about 110,000 compounds were measured (“z-score”: median about -0.1, highest 2% from about 2 on). The list shows a part of the results. Calls of active or inactive are those of the source.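 Rule for the calls: active = z-score in the third read window above 3 or below -3; inactive = the rest.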

The compounds below were run against Metabotropic glutamate receptor 8 (Rattus norvegicus) (UniProt P70579) (assay: rat mGluR8 modulators via GIRK flux, primary screen, cell-based, thallium flux, HTS (AID 488969)). Conditions: HEK293 rat mGluR8, GIRK (G protein-gated inwardly rectifying potassium channel) thallium flux, FluoZin2; at 10 µM; stronger effect = higher value; submaximal glutamate (EC20) added with thallium.
UniProt P70579, sequence (P70579 whole entry, looked up): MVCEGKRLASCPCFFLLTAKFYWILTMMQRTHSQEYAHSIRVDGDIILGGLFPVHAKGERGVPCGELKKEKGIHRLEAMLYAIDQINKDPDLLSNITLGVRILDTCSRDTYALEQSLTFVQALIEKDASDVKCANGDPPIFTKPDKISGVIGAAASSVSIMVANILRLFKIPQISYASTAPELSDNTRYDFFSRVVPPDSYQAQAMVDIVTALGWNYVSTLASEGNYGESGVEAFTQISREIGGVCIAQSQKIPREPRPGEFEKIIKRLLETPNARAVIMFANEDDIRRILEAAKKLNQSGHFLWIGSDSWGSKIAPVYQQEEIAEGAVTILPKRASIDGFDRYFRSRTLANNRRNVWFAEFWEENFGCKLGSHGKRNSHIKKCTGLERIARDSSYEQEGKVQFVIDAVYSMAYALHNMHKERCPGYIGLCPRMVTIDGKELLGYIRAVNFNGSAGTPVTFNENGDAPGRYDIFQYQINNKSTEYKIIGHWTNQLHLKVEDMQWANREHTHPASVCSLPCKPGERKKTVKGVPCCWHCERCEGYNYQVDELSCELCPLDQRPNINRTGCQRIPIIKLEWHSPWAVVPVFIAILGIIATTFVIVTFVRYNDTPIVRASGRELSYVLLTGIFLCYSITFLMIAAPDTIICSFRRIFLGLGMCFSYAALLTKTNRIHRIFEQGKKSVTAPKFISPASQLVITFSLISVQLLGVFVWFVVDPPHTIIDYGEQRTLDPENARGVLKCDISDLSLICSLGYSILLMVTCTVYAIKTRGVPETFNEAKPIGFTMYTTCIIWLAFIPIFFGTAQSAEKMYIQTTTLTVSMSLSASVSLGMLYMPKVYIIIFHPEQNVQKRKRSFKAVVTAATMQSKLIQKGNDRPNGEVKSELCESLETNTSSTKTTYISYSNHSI
With Cc1cccc(NC(=O)c2ccc(COc3ccc(Cl)cc3Cl)o2)n1 the z-score was -0.165.
Compound N#C/C(=C\c1ccc(-c2cccc(Cl)c2)o1)C(=O)Nc1cccc2cccnc12 has a z-score of -0.255.
CCCCOc1ccc(/C=N/NC(=S)Nc2cc(C)ccc2C)cc1 gave a z-score of 1.19.
In the case of Cc1cccc(S(=O)(=O)N2CN(Cc3ccco3)c3nc4ccccc4nc32)c1, the z-score is reported as -0.177.
CC(=O)/C(=C/Nc1ccc(Oc2ccccc2)cc1)c1ccccc1 was tested, and the z-score was -2.35.
With COc1ccc(C2CC(c3ccc(Cl)cc3Cl)n3nc(N)nc3N2)cc1 (stereo not drawn) the z-score was 1.76.
For Cc1cc(/C=C(\C#N)c2nc3ccccc3[nH]2)c(C)n1C, the z-score was -0.371.
Cc1ccc(-c2noc(CN(C(=O)Cc3ccccc3)C(C)C)n2)cc1 was tested, and the z-score was 0.0197.
c1ccc2sc(SCc3ccc(-c4nnco4)cc3)nc2c1 showed a z-score of -0.189.
COc1cc(OC)c(-c2nc3cnccc3n2C)cc1OC gave a z-score of 0.0988.
For COc1cc(/C=C(/C#N)c2ccc(F)cc2)ccc1OCc1ccc(C(=O)O)o1, the z-score was active: -4.8.
Work on Cc1cc(C)cc(N(C(=O)C2CCCC2)C2C=CS(=O)(=O)C2)c1 (stereo not drawn) yielded a z-score of 0.0646.
O=C(Cn1ncc2c(=O)oc3ccccc3c21)NCCc1ccsc1 gave a z-score of -0.157.
CCOC(=O)c1ccc2nc(C)c(CCC(C)=O)c(Cl)c2c1 was tested, and the z-score was -0.287.
With COC(=O)CN(Cc1ccco1)S(=O)(=O)c1ccccc1 the z-score was -0.329.
Cc1cccc(NC(=O)CC2S/C(=N/c3nccs3)N(C)C2=O)c1 (stereo not drawn) gave a z-score of -0.532.
Cc1ccc(S(=O)(=O)N2CCCC2C(=O)NCCc2nc3ccccc3[nH]2)cc1 (stereo not drawn) gave a z-score of 1.06.
O=C(CNC(=O)C1CCCCC1)Nc1ccc(Cl)cc1 showed a z-score of -0.203.
C/C(Cl)=C/Cn1c(NCCCn2ccnc2)nc2c1c(=O)[nH]c(=O)n2C gave a z-score of 0.264.
CC1CCN(S(=O)(=O)c2cnc(Cl)c(Br)c2)CC1 was tested, and the z-score was -0.179.
Work on O=C1NC2(CCCCC2)C(=O)N1c1ccccc1 yielded a z-score of -0.123.
O=C(COC(=O)c1cnccn1)NCCc1ccccc1 gave a z-score of 0.028.
For COc1cccc(C(C(=O)NC2CCCCC2)N(C(=O)c2cccs2)c2ccc3c(c2)OCO3)c1 (stereo not drawn), the z-score was -0.354.
COc1ccccc1C(=O)O/N=C(/C)c1ccc(N2C(=O)C3CCCCC3C2=O)cc1 (stereo not drawn) showed a z-score of -0.564.
For COC(=O)NNC(=O)CCCOc1ccc(Cl)cc1Cl, the z-score was -0.164.
For O=C(NCCSc1ccccc1)c1ccccc1Cl, the z-score was -0.112.
For Cc1ccc(-c2nc(C)sc2CC(=O)NCc2ccco2)cc1, the z-score was 0.0357.
Cc1ccc(C(=O)COC(=O)CNC(=O)c2ccco2)cc1 gave a z-score of -0.0681.
For O=c1oc2ccc3ccccc3c2cc1-c1nc2ccccc2o1, the z-score was -0.182.
In the case of Cc1ccc(S(=O)(=O)NC(=O)Nc2nnc(C3CC3)s2)cc1, the z-score is reported as -0.0905.
CN(C)Cc1ccccc1C1(O)c2ccccc2CSc2ccccc21 (stereo not drawn) gave a z-score of -0.164.
Cc1ccc(C(NC(=O)/C=C\c2ccc3c(c2)OCO3)C(=O)Nc2ccc3c(c2)OCO3)cc1 (stereo not drawn) was tested, and the z-score was -0.0804.
Work on CCc1c(C)sc(NC(=O)c2cc(C)no2)c1C#N yielded a z-score of -0.236.
For Cc1ccc(-c2cc(C(=O)Nc3nn[nH]n3)c3ccccc3n2)c(C)c1, the z-score was 0.047.
Compound CCCC1CCC(C(=O)Nn2cnc3ccccc3c2=O)CC1 (stereo not drawn) has a z-score of -0.146.
CCC1CCC/C1=N\NC(=O)c1cc(C)[nH]n1 (stereo not drawn) showed a z-score of -0.0339.
Compound COc1ccc(C(=O)OCC(=O)NCc2ccco2)cc1OC has a z-score of -0.196.
For Cc1c(Cl)c([N+](=O)[O-])nn1CC(=O)Nc1c(C)n(C)n(-c2ccccc2)c1=O, the z-score was -0.0515.
Work on Cc1ccc(-c2nc(C3CCN(S(C)(=O)=O)CC3)no2)cc1 yielded a z-score of -0.0456.
COc1ccc(-c2c3c(=O)n(C)c(=O)n(C)c3cn2-c2ccccc2)cc1 showed a z-score of -2.16.
CCN1CCc2c(sc(NC(=O)Nc3ccc(Cl)c(Cl)c3)c2C(N)=O)C1 was tested, and the z-score was -0.495.
Work on CCN(CCCNC(=O)c1cn(CC)c2ccc(S(=O)(=O)N(C)C)cc2c1=O)c1cccc(C)c1 yielded a z-score of -2.3.
Work on COc1ccc(/C=C/C(=O)NC(=S)Nc2ccc(S(=O)(=O)Nc3ccc(OC)nn3)cc2)cc1 yielded a z-score of -0.281.
For COc1ccc(C(=O)Nc2cc(Cl)cc(Cl)c2)c(OC)n1, the z-score was -0.0898.
In the case of O=C(Nc1ccccc1)N1C2CCC1CC(O)(c1cccnc1)C2 (stereo not drawn), the z-score is reported as -0.144.
With CCN(CC)CC(C(=O)N(CC)CC)P(=O)(c1ccccc1)c1ccccc1 (stereo not drawn) the z-score was -0.228.
O=C(O)c1ccc2c(c1)C(=O)N(NC(=O)c1ccccc1)C2=O gave a z-score of -0.346.
In the case of CC(=O)N1CCN(c2ccc(NC(=O)c3cccc(OCc4ccccc4)c3)cc2)CC1, the z-score is reported as 0.0391.
Cc1cc(C)c2c(n1)nn1c(-n3ccnc3)cc(C)nc21 showed a z-score of -0.277.
COc1ccc(C(=O)Oc2ccc(/C=N/NC(=O)c3ccccc3OC)cc2[N+](=O)[O-])cc1 gave a z-score of 0.0678.
Work on S=C(Cc1cccnc1)N1CCOCC1 yielded a z-score of -0.155.
In the case of CCCC(O)(CCC)C(=O)NN(C(=O)OC)c1ccccc1, the z-score is reported as -0.128.
For Cc1csc(C(=O)O)c1-n1cccc1, the z-score was -0.27.
CCc1nnc(NC(=O)C2CC(=O)N(c3ccc(C)cc3)C2)s1 (stereo not drawn) gave a z-score of 0.00239.
With Cc1ccc(C(=O)N/C(=C/c2cccs2)C(=O)NCc2ccco2)cc1 the z-score was -0.165.
Work on Cc1c(Br)cc(C(=O)OC2CCN(C)CC2)c(C)c1C yielded a z-score of 1.02.
For Cc1ccc(C)n1-c1ccc(N2CCOCC2)c(Br)c1, the z-score was -0.0836.
COc1ccc(OC)c(/C(O)=C/C(=O)C(=O)Nc2cc(C)ccc2OC)c1 showed a z-score of 0.612.
Cc1ccc2nc(SCC(=O)N3c4ccccc4CC3C)c(C)cc2c1 (stereo not drawn) was tested, and the z-score was -0.0416.
O=C(Cc1ccccc1)NCC1COc2ccccc2O1 (stereo not drawn) gave a z-score of -0.147.
In the case of Cc1cc(C)n(-c2ncnc3c2oc2ccccc23)n1, the z-score is reported as 0.121.
O=C(CC1CCCCC1)c1c(O)c2ccccc2oc1=O showed a z-score of -0.995.
c1ccc2c(c1)CNc1ccccc1C2 gave a z-score of -0.154.
Compound CCN(CC)S(=O)(=O)c1cc(C(=O)OCC(=O)NC2CCCc3ccccc32)ccc1C (stereo not drawn) has a z-score of -0.154.
Work on Cc1ccccc1S(=O)(=O)Nc1ncnc2scc(-c3ccccc3)c12 yielded a z-score of 0.207.
Cc1cc(Nc2cccc(F)c2)nc(-c2ccccc2O)n1 showed a z-score of 0.838.
With Cc1ccc(C)c(OCC(=O)Nc2nonc2NC(=O)COc2cc(C)ccc2C)c1 the z-score was -0.394.
For COC(=O)c1ccc(NC(CC(C)C)C(=O)OC)c([N+](=O)[O-])c1 (stereo not drawn), the z-score was 1.05.
Compound O=C(NCCN1CCOCC1)C1CCC(=O)N1C1CCCCC1 (stereo not drawn) has a z-score of 0.44.
Compound CC(=O)Nc1cccc(-c2csc(Nc3cc(C)ccn3)n2)c1 has a z-score of -0.78.
Cc1nc2ccccc2cc1C(=O)N/N=C/c1cccs1 was tested, and the z-score was -0.0999.
CCOC(=O)c1cnc(-c2ccccc2)nc1N was tested, and the z-score was 0.276.
With Cc1ccc2nc(-c3ccc(NC(=O)CSc4ccccc4)cc3)[nH]c2c1 the z-score was -0.129.
CCN(C(=S)Nc1ccccc1F)C1CCCCC1 gave a z-score of 0.0708.
For Cc1cccc(-c2noc(CCc3ccccc3)n2)c1, the z-score was 0.142.
In the case of Cc1ccc(S(=O)(=O)N2CCN(c3cc4c(cc3[N+](=O)[O-])n(C)c(=O)n4C)CC2)cc1, the z-score is reported as -0.078.
O=C(CSC1=NS(=O)(=O)c2ccccc21)Nc1ccccc1 was tested, and the z-score was -0.326.
In the case of COCCN1Cc2cccc(C(=O)NCc3cccnc3)c2C1=O, the z-score is reported as 0.092.
CCOC(=O)c1sc(NC(=O)CN(CC(C)C)CC(C)C)c(C(=O)OCC)c1C showed a z-score of -0.407.
With CCN(CC)CC(O)COCCC12CC3CC(CC(C3)C1)C2 (stereo not drawn) the z-score was active: 3.04.
CSc1ccccc1NC(=O)c1cccnc1 was tested, and the z-score was 0.499.
COc1ccc(CN2C(=O)c3ccccc3C2C(=O)NCc2cccnc2)c(OC)c1 (stereo not drawn) gave a z-score of 0.294.
For Oc1ccc(-c2n[nH]c(=S)n2Cc2ccco2)cc1, the z-score was -0.11.
Compound CCOC(=O)c1c(NC(=O)CSc2nncs2)sc(C)c1-c1ccccc1 has a z-score of -0.117.
Work on O=C(Cc1ccc(Nc2nc3ccc(Br)cc3[nH]2)cc1)NCCc1cccs1 yielded a z-score of -0.267.
With COC(=O)c1ccccc1NC(=O)CCc1ccccc1 the z-score was -0.362.
With CCCc1nnc(SCC(=O)N2CCOCC2)n1C the z-score was 0.442.
In the case of C/C(=N\NC(=O)c1ccccc1C)c1cccc([N+](=O)[O-])c1, the z-score is reported as -0.192.
O=C(c1ccc(F)cc1)N1CCC(N2CCOCC2)CC1 was tested, and the z-score was 0.111.
Compound CCc1c(OC(C)=O)c2ccccc2n(C)c1=O has a z-score of -0.868.
In the case of O=C(CSc1n[nH]c(C2CCCC2)n1)NC1CCCC1, the z-score is reported as 0.823.
Work on O=C(COC(=O)c1cccc2ccccc12)Nc1ncc(C(F)(F)F)cc1Cl yielded a z-score of 0.271.
CCSc1ncnc2sc(C)c(C)c12 gave a z-score of -0.112.
For Cc1noc(C(=O)Nc2c(C)nn(Cc3ccccc3)c2C)c1Cl, the z-score was -0.922.
For CCOc1ccc(NC(=S)N2CCC(N(C)CCN3CCOCC3)CC2)cc1, the z-score was -0.0503.
In the case of COC(=O)c1ccccc1NC(=O)CSc1nnc(C(C)NC(=O)c2ccc(Cl)cc2Cl)n1C (stereo not drawn), the z-score is reported as -0.955.
Compound COc1ccc(OC)c(C(=O)CSc2nnc(-c3ccc(OC)c(OC)c3)o2)c1 has a z-score of -0.145.
Cn1c(CO)c(-c2ccccc2)c2cc([N+](=O)[O-])ccc21 showed a z-score of -0.621.
Compound Nc1cccc(-c2nc3ccccc3s2)c1 has a z-score of -0.176.
Work on CC(C)(C)NCC(O)COCc1ccc(Cl)cc1 (stereo not drawn) yielded a z-score of -0.278.
Compound Cc1cc(C(=O)COC(=O)Cc2n[nH]c(=O)c3ccccc23)c(C)n1-c1ccc2c(c1)OCO2 has a z-score of -1.33.
In the case of COc1ccc(S(=O)(=O)Nc2ccc3c(c2)OCO3)cc1Cl, the z-score is reported as 0.238.
Work on Cc1ccc(-c2nc3cnccn3c2Nc2ccccc2)o1 yielded a z-score of -0.467.
O=C(Nc1ccccc1)Nc1cccc2cccnc12 was tested, and the z-score was -0.499.
Cn1c(=O)c2c(nc(SCC(=O)NCc3ccc4c(c3)OCO4)n2Cc2ccc(F)cc2)n(C)c1=O gave a z-score of 0.172.
Work on COc1ccccc1CC(=O)NC1CC(C)(C)NC(C)(C)C1 yielded a z-score of 1.1.
With c1ccc(OCc2nc(-c3ccccc3)no2)cc1 the z-score was 0.568.
Work on O=C(CSc1ccc(C(F)(F)F)cc1[N+](=O)[O-])Nc1ccccc1 yielded a z-score of 1.52.
In the case of CC1Cc2ccccc2N1C(=O)CSc1nc(-c2ccco2)cc(C(F)(F)F)n1 (stereo not drawn), the z-score is reported as -0.351.
CC(C)(C)C(=O)NC(NC(=S)Nc1ccc(S(N)(=O)=O)cc1)C(Cl)(Cl)Cl (stereo not drawn) gave a z-score of -0.298.
With COc1ccc(C2C3=C(CCCC3=O)Nc3nc(SCc4ccc(C(=O)O)cc4)nn32)cc1OC (stereo not drawn) the z-score was 0.221.
Nc1nc2c(F)cccc2s1 was tested, and the z-score was -0.0918.
With O=C1CCCc2c1sc1nc3n(c(=O)c21)CCCCC3 the z-score was -0.0924.
